In all, about 310,000 compounds went through this assay and about 2,200 (0.71%) showed an effect of 50% or more. Effects have a minus sign here. The list shows a part of the results.
The compounds below were run against human ether-à-go-go-related gene (hERG) potassium channel (human, UniProt Q12809) (assay: primary screen, population patch clamp on CHO cells stably expressing hERG).
human ether-à-go-go-related gene (hERG) potassium channel, sequence (Q12809 whole entry, looked up): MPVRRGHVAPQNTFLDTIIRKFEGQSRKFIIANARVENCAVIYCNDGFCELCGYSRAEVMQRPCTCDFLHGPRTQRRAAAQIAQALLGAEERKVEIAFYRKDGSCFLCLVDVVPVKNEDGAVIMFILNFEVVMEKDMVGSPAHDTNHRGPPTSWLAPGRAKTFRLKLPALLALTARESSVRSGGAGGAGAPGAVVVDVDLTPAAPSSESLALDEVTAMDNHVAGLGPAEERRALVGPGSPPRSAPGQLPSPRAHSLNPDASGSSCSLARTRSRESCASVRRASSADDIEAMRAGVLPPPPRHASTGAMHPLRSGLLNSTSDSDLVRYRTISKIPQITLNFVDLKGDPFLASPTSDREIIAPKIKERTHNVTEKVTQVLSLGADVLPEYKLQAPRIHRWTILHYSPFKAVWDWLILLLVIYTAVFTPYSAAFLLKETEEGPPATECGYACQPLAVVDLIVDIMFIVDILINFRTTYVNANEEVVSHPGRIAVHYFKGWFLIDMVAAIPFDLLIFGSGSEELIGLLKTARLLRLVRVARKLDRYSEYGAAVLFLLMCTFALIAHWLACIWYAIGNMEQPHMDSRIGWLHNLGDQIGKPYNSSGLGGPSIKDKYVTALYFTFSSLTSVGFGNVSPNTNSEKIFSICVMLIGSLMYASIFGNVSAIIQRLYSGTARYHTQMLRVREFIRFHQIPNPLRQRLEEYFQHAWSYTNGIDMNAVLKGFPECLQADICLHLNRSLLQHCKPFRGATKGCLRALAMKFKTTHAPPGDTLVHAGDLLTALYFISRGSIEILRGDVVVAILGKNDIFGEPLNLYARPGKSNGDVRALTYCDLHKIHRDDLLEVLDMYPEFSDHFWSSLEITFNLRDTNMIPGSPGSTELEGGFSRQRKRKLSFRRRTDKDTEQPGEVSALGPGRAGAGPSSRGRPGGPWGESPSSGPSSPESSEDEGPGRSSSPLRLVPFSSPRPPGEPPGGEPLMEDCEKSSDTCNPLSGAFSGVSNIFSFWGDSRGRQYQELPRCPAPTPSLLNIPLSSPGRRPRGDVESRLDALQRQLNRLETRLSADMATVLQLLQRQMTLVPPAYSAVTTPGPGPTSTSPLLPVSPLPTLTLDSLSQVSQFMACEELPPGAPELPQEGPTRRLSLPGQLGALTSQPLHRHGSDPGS
For COc1ccc(CCNC(=O)C2CCCN2C(=O)Nc2cccc(C(C)=O)c2)cc1OC (centres unmarked), the “hERG current change (%, negative = inhibition) at 1uM” value was 0.937%. In the case of COc1ccc(NC(=O)c2ccc3ncsc3c2)c2ccccc12, the “hERG current change (%, negative = inhibition) at 1uM” value is reported as 8.29%. For OC(CNCCCCNCC(O)C(F)(F)F)C(F)(F)F (centres unmarked), the “hERG current change (%, negative = inhibition) at 1uM” value was 15.8%. For CCOC(=O)C1CCN(C(=O)CN2C(=O)C(C(C)C)Oc3ccccc32)CC1 (centres unmarked), the “hERG current change (%, negative = inhibition) at 1uM” value was -2.01%. For Cn1c(SCC(=O)NCc2cccs2)nnc1-c1ccc(S(=O)(=O)N2CCCC2)cc1, the “hERG current change (%, negative = inhibition) at 1uM” value was -1.66%. With COC(=O)[C@H](CC(C)C)NC(=O)Nc1ccc(S(N)(=O)=O)cc1 the “hERG current change (%, negative = inhibition) at 1uM” value was 5.33%. For Cc1cc(NC(=O)CN(C)CCOc2ccccc2)ccc1Br.O=C(O)C(=O)O, the “hERG current change (%, negative = inhibition) at 1uM” value was 10.5%. With Cn1ncc([N+](=O)[O-])c1C(=O)Nc1cccc2ccccc12 the “hERG current change (%, negative = inhibition) at 1uM” value was 4.85%. For CCCCN(C(=S)Nc1ccc(F)cc1)c1c(N)n(CCC)c(=O)[nH]c1=O, the “hERG current change (%, negative = inhibition) at 1uM” value was 1.92%. In the case of CCSc1nc2sc3c(c2c2[n+]1CC(CBr)O2)CCCC3.[Br-] (centres unmarked), the “hERG current change (%, negative = inhibition) at 1uM” value is reported as 13.8%. For CCc1nc(NCCN2CCOCC2)c2oc3ccccc3c2n1.Cl, the “hERG current change (%, negative = inhibition) at 1uM” value was 0.594%. For COc1ccc(Cc2nnc(SCC(=O)Nc3cc(Cl)ccc3OC)[nH]c2=O)cc1, the “hERG current change (%, negative = inhibition) at 1uM” value was 9.8%. In the case of Cc1cccc(CNC(=O)CCn2ccc3cc(S(=O)(=O)N4CCCC4)ccc32)c1, the “hERG current change (%, negative = inhibition) at 1uM” value is reported as 8.44%. In the case of CCCn1c(=O)c2[nH]cnc2n(-c2ccccc2C)c1=O, the “hERG current change (%, negative = inhibition) at 1uM” value is reported as 13.3%. For COc1ccc(S(=O)(=O)N2CCN(C)CC2)c(C)c1, the “hERG current change (%, negative = inhibition) at 1uM” value was 11.9%. With Cc1cc(C)cc(N(CC(=O)NCC2CCCO2)S(=O)(=O)c2c(C)noc2C)c1 (centres unmarked) the “hERG current change (%, negative = inhibition) at 1uM” value was -0.711%. CCCCN(C(=O)CCC(=O)O)C1CC(=O)N(c2ccc(OCCC)cc2)C1=O (centres unmarked) was tested, and the “hERG current change (%, negative = inhibition) at 1uM” value was 11.5%. For Cc1ccc(NC(=O)c2nccnc2C(=O)O)cc1C, the “hERG current change (%, negative = inhibition) at 1uM” value was 9.83%. With O=C(COC(=O)c1ccccc1O)Nc1ccc(OC(F)F)cc1 the “hERG current change (%, negative = inhibition) at 1uM” value was 6.17%. Cc1csc(SCC(=O)NC(C)c2ccc(F)cc2)n1 (centres unmarked) was tested, and the “hERG current change (%, negative = inhibition) at 1uM” value was 2.54%. For CCC1Oc2ccccc2N(Cc2ccccc2C)C1=O (centres unmarked), the “hERG current change (%, negative = inhibition) at 1uM” value was -10.3%. COC(=O)c1sccc1NC(=O)C1C2C=CC(C2)C1C(=O)O (centres unmarked) was tested, and the “hERG current change (%, negative = inhibition) at 1uM” value was 14.9%. COc1cc2c(cc1OC)[C@@H]1C(=O)c3ccc4c(c3O[C@@H]1CO2)C[C@H](C(C)C)O4 was tested, and the “hERG current change (%, negative = inhibition) at 1uM” value was 11.5%. In the case of COCCNC(=S)N/N=C(\C)c1ccccc1O, the “hERG current change (%, negative = inhibition) at 1uM” value is reported as 14.4%. For O=C(CN1CCCC1=O)NCCc1ccccc1, the “hERG current change (%, negative = inhibition) at 1uM” value was 8.88%. COC(=O)CN1C(=O)C2(C(C#N)=C(N)Oc3c2c(C)nn3-c2ccccc2)c2ccccc21 (centres unmarked) was tested, and the “hERG current change (%, negative = inhibition) at 1uM” value was 6.69%. O=C(NNS(=O)(=O)c1ccc(F)cc1)C1CCN(S(=O)(=O)c2ccccc2)CC1 was tested, and the “hERG current change (%, negative = inhibition) at 1uM” value was 9.61%. O=C1N=C(N2CCOCC2)S/C1=C\c1cccs1 was tested, and the “hERG current change (%, negative = inhibition) at 1uM” value was 1.6%. For O=[N+]([O-])c1ccc(/C=N/n2c(C3CCCCC3)n[nH]c2=S)cc1, the “hERG current change (%, negative = inhibition) at 1uM” value was 14.8%. O=C(Cc1ccc(Cl)cc1)OCc1nnc(-c2ccccc2)o1 was tested, and the “hERG current change (%, negative = inhibition) at 1uM” value was 9.21%. For CCCc1ncc(C(O)c2cccc3ccccc23)n1C (centres unmarked), the “hERG current change (%, negative = inhibition) at 1uM” value was -8.21%. In the case of CSc1nc2nc(-c3ccc(F)cc3)c(CCN3CCN(C)CC3)cn2n1, the “hERG current change (%, negative = inhibition) at 1uM” value is reported as 9.08%. In the case of CN1CCc2c(sc(NC(=O)CS(=O)(=O)c3ccc(F)cc3)c2C(N)=O)C1.Cl, the “hERG current change (%, negative = inhibition) at 1uM” value is reported as -21.4%. In the case of CSCCC(NC(=O)c1ccccc1Br)C(=O)NCC1CCCCC1 (centres unmarked), the “hERG current change (%, negative = inhibition) at 1uM” value is reported as 7.69%. O=c1ccn(CCc2c[nH]c3ccccc23)c2c1CCCC2 was tested, and the “hERG current change (%, negative = inhibition) at 1uM” value was 4.21%. CCC(C(=O)NC(C)c1ccccc1)C(=O)NC(C)c1ccccc1 (centres unmarked) was tested, and the “hERG current change (%, negative = inhibition) at 1uM” value was 14.4%. Cc1cc2oc(=O)cc(CN3CCCCC3C)c2cc1Cl (centres unmarked) was tested, and the “hERG current change (%, negative = inhibition) at 1uM” value was 3.08%. With O=C(N/N=C/c1cccc([N+](=O)[O-])c1)c1cccs1 the “hERG current change (%, negative = inhibition) at 1uM” value was 7.41%. Cc1cc(-c2nn(-c3ccccc3F)cc2CNCCc2cnc[nH]2)c(C)s1 was tested, and the “hERG current change (%, negative = inhibition) at 1uM” value was -13.8%. For COC(=O)c1ccc(Cl)c(NC(=O)CN(c2ccc(OC)cc2)S(=O)(=O)c2ccccc2)c1, the “hERG current change (%, negative = inhibition) at 1uM” value was 7.1%. In the case of COC(=O)c1ccc(NC(=O)C(=O)N2CCN(C(=S)Nc3ccccc3OC)CC2)cc1, the “hERG current change (%, negative = inhibition) at 1uM” value is reported as 1.89%. For COc1cccc(NC(=O)N2CCN(c3ccc(C(F)(F)F)cn3)CC2)c1, the “hERG current change (%, negative = inhibition) at 1uM” value was 10.4%. In the case of O=C(Nc1ccc(Cl)c(Cl)c1)c1ccccc1, the “hERG current change (%, negative = inhibition) at 1uM” value is reported as 4.25%. With Cc1ccc(C)c(S(=O)(=O)N2CCN(C(=O)Cn3c(=O)cnc4ccccc43)CC2)c1 the “hERG current change (%, negative = inhibition) at 1uM” value was 13.2%. With O=C(N/N=C\c1c[nH]c2ccccc12)c1ccc(O)cc1 the “hERG current change (%, negative = inhibition) at 1uM” value was 14.6%. In the case of COCCNC(=O)c1ccccc1N(Cc1ccccc1)S(=O)(=O)c1ccccc1, the “hERG current change (%, negative = inhibition) at 1uM” value is reported as 12.9%. CCOc1ccc(NC(=O)CSc2nc3cccnc3n2CCOC)cc1 was tested, and the “hERG current change (%, negative = inhibition) at 1uM” value was 0.477%. In the case of Cc1cccc(OCC(=O)Nc2cc(NC(=O)COc3cccc(C)c3C)cc(C(=O)O)c2)c1C, the “hERG current change (%, negative = inhibition) at 1uM” value is reported as 16.1%. In the case of COC(=O)c1cc(-c2c(C)oc3cc(OC)ccc3c2=O)c(C)o1, the “hERG current change (%, negative = inhibition) at 1uM” value is reported as 5.85%. Cc1sc2ncnc(Sc3ccccc3C(=O)Nc3ccc(C#N)cc3)c2c1C was tested, and the “hERG current change (%, negative = inhibition) at 1uM” value was 2.6%. With CC(=O)Nc1ccc(S(=O)(=O)N2CCCN(S(=O)(=O)c3ccc(NC(C)=O)cc3)CC2)cc1 the “hERG current change (%, negative = inhibition) at 1uM” value was 5.58%. For COc1ccc(-n2nc(N)c(C(N)=O)n2)cc1, the “hERG current change (%, negative = inhibition) at 1uM” value was 16.9%. With CN1/C(=C\C(=O)CSc2cccc[n+]2[O-])C(C)(C)c2ccccc21 the “hERG current change (%, negative = inhibition) at 1uM” value was 15.8%. In the case of O=C1C2CCCN2C(c2ccc(Cl)c(Cl)c2)N1c1ccccn1 (centres unmarked), the “hERG current change (%, negative = inhibition) at 1uM” value is reported as 16.3%. In the case of CCNC(=O)COC(=O)c1ccc(S(=O)(=O)N2CCCCCC2)cc1, the “hERG current change (%, negative = inhibition) at 1uM” value is reported as 4.58%. In the case of O=[N+]([O-])c1c(C(Cl)Cl)nn(-c2ccccc2)c1N1CCOCC1, the “hERG current change (%, negative = inhibition) at 1uM” value is reported as 5.49%.

Source: publication PMC4336329 (PLoS ONE, 2015)
